From PMC9911399, “Two distinct binding modes provide the RNA-binding protein RbFox with extraordinary sequence specificity” come the findings set out here.

T1: RBFOX1 RRM (Homo sapiens, UniProt Q9NWB1 109-208)
T1 sequence: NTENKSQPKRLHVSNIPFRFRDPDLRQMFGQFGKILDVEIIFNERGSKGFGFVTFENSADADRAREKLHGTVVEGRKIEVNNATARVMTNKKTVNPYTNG

B1: AAAUAGC (DNA:RNA)
RNA: GGGAGACCGGAAUUCAGAUUGUCCAAAUAGCUUAAAUCCCGUCGUAGCCACCA
DNA 1: CAATCTGAATTCCGGTCTCCC
DNA 2: TGGTGGCTACGACGGGATT
B2: GCGGCGC (DNA:RNA)
RNA: B1 RNA with A25G, A26C, A27G, U28G, A29C
DNA 1: CAATCTGAATTCCGGTCTCCC
DNA 2: TGGTGGCTACGACGGGATT
B3: UCUCCGA (DNA:RNA)
RNA: B1 RNA with A25U, A26C, A27U, U28C, A29C, C31A
DNA 1: CAATCTGAATTCCGGTCTCCC
DNA 2: TGGTGGCTACGACGGGATT
B4: GGUUAGG (DNA:RNA)
RNA: B1 RNA with A25G, A26G, A27U, C31G
DNA 1: CAATCTGAATTCCGGTCTCCC
DNA 2: TGGTGGCTACGACGGGATT
B5: CACUAUG (DNA:RNA)
RNA: B1 RNA with A25C, A27C, G30U, C31G
DNA 1: CAATCTGAATTCCGGTCTCCC
DNA 2: TGGTGGCTACGACGGGATT
B6: UAUAUAU (DNA:RNA)
RNA: B1 RNA with A25U, A27U, U28A, A29U, G30A, C31U
DNA 1: CAATCTGAATTCCGGTCTCCC
DNA 2: TGGTGGCTACGACGGGATT
B7: CUUGUAA (DNA:RNA)
RNA: GGGAGACCGGAAUUCAGAUUGUCCCUUGUAAUUAAAUCCCGUCGUAGCCACCA
DNA 1: CAATCTGAATTCCGGTCTCCC
DNA 2: TGGTGGCTACGACGGGATT
B8: CGGCGCU (DNA:RNA)
RNA: B7 RNA with U26G, U27G, G28C, U29G, A30C, A31U
DNA 1: CAATCTGAATTCCGGTCTCCC
DNA 2: TGGTGGCTACGACGGGATT
B9: CAGUAAU (DNA:RNA)
RNA: B1 RNA with A25C, A27G, G30A, C31U
DNA 1: CAATCTGAATTCCGGTCTCCC
DNA 2: TGGTGGCTACGACGGGATT
B10: UUAGCUG (DNA:RNA)
RNA: B7 RNA with C25U, U27A, U29C, A30U, A31G
DNA 1: CAATCTGAATTCCGGTCTCCC
DNA 2: TGGTGGCTACGACGGGATT
B11: ACCCGGG (DNA:RNA)
RNA: B1 RNA with A26C, A27C, U28C, A29G, C31G
DNA 1: CAATCTGAATTCCGGTCTCCC
DNA 2: TGGTGGCTACGACGGGATT
B12: CCACUGC (DNA:RNA)
RNA: B1 RNA with A25C, A26C, U28C, A29U
DNA 1: CAATCTGAATTCCGGTCTCCC
DNA 2: TGGTGGCTACGACGGGATT
B13: GCAUGUG (DNA:RNA)
RNA: B1 RNA with A25G, A26C, A29G, G30U, C31G
DNA 1: CAATCTGAATTCCGGTCTCCC
DNA 2: TGGTGGCTACGACGGGATT
B14: UUAGCUA (DNA:RNA)
RNA: B7 RNA with C25U, U27A, U29C, A30U
DNA 1: CAATCTGAATTCCGGTCTCCC
DNA 2: TGGTGGCTACGACGGGATT
B15: ACUCGGG (DNA:RNA)
RNA: B1 RNA with A26C, A27U, U28C, A29G, C31G
DNA 1: CAATCTGAATTCCGGTCTCCC
DNA 2: TGGTGGCTACGACGGGATT
B16: UUAAAUG (DNA:RNA)
RNA: B1 RNA with A25U, A26U, U28A, G30U, C31G
DNA 1: CAATCTGAATTCCGGTCTCCC
DNA 2: TGGTGGCTACGACGGGATT
B17: AGUUAUC (DNA:RNA)
RNA: B1 RNA with A26G, A27U, G30U
DNA 1: CAATCTGAATTCCGGTCTCCC
DNA 2: TGGTGGCTACGACGGGATT
B18: GUUACUG (DNA:RNA)
RNA: B7 RNA with C25G, G28A, U29C, A30U, A31G
DNA 1: CAATCTGAATTCCGGTCTCCC
DNA 2: TGGTGGCTACGACGGGATT
B19: GUGUCAU (DNA:RNA)
RNA: B7 RNA with C25G, U27G, G28U, U29C, A31U
DNA 1: CAATCTGAATTCCGGTCTCCC
DNA 2: TGGTGGCTACGACGGGATT
B20: UUAAUCC (DNA:RNA)
RNA: B1 RNA with A25U, A26U, U28A, A29U, G30C
DNA 1: CAATCTGAATTCCGGTCTCCC
DNA 2: TGGTGGCTACGACGGGATT
B21: AUCCCCU (DNA:RNA)
RNA: B1 RNA with A26U, A27C, U28C, A29C, G30C, C31U
DNA 1: CAATCTGAATTCCGGTCTCCC
DNA 2: TGGTGGCTACGACGGGATT
B22: UCGAUCC (DNA:RNA)
RNA: B1 RNA with A25U, A26C, A27G, U28A, A29U, G30C
DNA 1: CAATCTGAATTCCGGTCTCCC
DNA 2: TGGTGGCTACGACGGGATT
B23: CAGGAAA (DNA:RNA)
RNA: B7 RNA with U26A, U27G, U29A
DNA 1: CAATCTGAATTCCGGTCTCCC
DNA 2: TGGTGGCTACGACGGGATT
B24: AAGCGCA (DNA:RNA)
RNA: B1 RNA with A27G, U28C, A29G, G30C, C31A
DNA 1: CAATCTGAATTCCGGTCTCCC
DNA 2: TGGTGGCTACGACGGGATT
B25: AAAUUAC (DNA:RNA)
RNA: B1 RNA with A29U, G30A
DNA 1: CAATCTGAATTCCGGTCTCCC
DNA 2: TGGTGGCTACGACGGGATT
B26: GGUAACA (DNA:RNA)
RNA: B7 RNA with C25G, U26G, G28A, U29A, A30C
DNA 1: CAATCTGAATTCCGGTCTCCC
DNA 2: TGGTGGCTACGACGGGATT
B27: CAUAUAU (DNA:RNA)
RNA: B7 RNA with U26A, G28A, A31U
DNA 1: CAATCTGAATTCCGGTCTCCC
DNA 2: TGGTGGCTACGACGGGATT
B28: UGAUCCA (DNA:RNA)
RNA: B1 RNA with A25U, A26G, A29C, G30C, C31A
DNA 1: CAATCTGAATTCCGGTCTCCC
DNA 2: TGGTGGCTACGACGGGATT
B29: CCGUUUC (DNA:RNA)
RNA: B1 RNA with A25C, A26C, A27G, A29U, G30U
DNA 1: CAATCTGAATTCCGGTCTCCC
DNA 2: TGGTGGCTACGACGGGATT
B30: GAAUCGU (DNA:RNA)
RNA: B1 RNA with A25G, A29C, C31U
DNA 1: CAATCTGAATTCCGGTCTCCC
DNA 2: TGGTGGCTACGACGGGATT
B31: GACAUCC (DNA:RNA)
RNA: B1 RNA with A25G, A27C, U28A, A29U, G30C
DNA 1: CAATCTGAATTCCGGTCTCCC
DNA 2: TGGTGGCTACGACGGGATT

Residue numbers refer to the chain shown, from its start. The list shows a part of the results.

The target in the assay is T1, RBFOX1 RRM. Put plainly: EMSA; HiTS-Eq, 1 nM pool, 10 min; buffer printed only for the single-RNA assays: 10 mM Tris pH 7.5, 150 mM NaCl, 3.4 mM EDTA, 0.001% NP-40, 30 C. The note with it: tags: His6 N-terminal (pET28a); label: 5' 32P. In a few lines:
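Purified wild-type or mutant RbFox RRM at increasing concentrations was equilibrated with 1 nM of 5′-radiolabelled RNA carrying 7 randomized nucleotides for 10 min in 50 µL. Unbound RNA was separated by 8% native PAGE and sequenced. Relative association constants came from read-count changes of each RNA species compared with the control reaction, normalised to the cognate motif.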
For the molecule B1, the binding signal is 0.00215 KA relative to UGCAUGU. For B2 the value was 0.0236 KA relative to UGCAUGU.

B3: the binding signal is 0.0139 KA relative to UGCAUGU.

On to B4, for which the binding signal was 0.00756 KA relative to UGCAUGU. On to B5, for which the binding signal was 0.00229 KA relative to UGCAUGU. For the molecule B6, the binding signal is 0.00311 KA relative to UGCAUGU. The value for B7 was 0.00804 KA relative to UGCAUGU. The value for B8 was 0.0147 KA relative to UGCAUGU; that for B9 was 0.00269 KA relative to UGCAUGU. For the molecule B10, the binding signal was 0.0158 KA relative to UGCAUGU. As for B11, the binding signal is 0.00858 KA relative to UGCAUGU. Regarding B12, the binding signal was 0.00554 KA relative to UGCAUGU. For B13 the value was 0.8 KA relative to UGCAUGU. As for B14, the binding signal was 0.00954 KA relative to UGCAUGU. The value for B15 was 0.00646 KA relative to UGCAUGU.

Regarding B16, the binding signal is 0.0123 KA relative to UGCAUGU.

For B17, the binding signal was 0.00773 KA relative to UGCAUGU. The value for B18 was 0.0187 KA relative to UGCAUGU; that for B19 was 0.0129 KA relative to UGCAUGU. For B20 the value was 0.00387 KA relative to UGCAUGU; for B21, 0.00188 KA relative to UGCAUGU. The value for B22 was 0.00757 KA relative to UGCAUGU; that for B23 was 0.0109 KA relative to UGCAUGU; that for B24 was 0.0101 KA relative to UGCAUGU. For the molecule B25, the binding signal is 0.0013 KA relative to UGCAUGU. For B26 the value was 0.00638 KA relative to UGCAUGU; for B27, 0.000422 KA relative to UGCAUGU. Turning to B28, the binding signal was 0.0051 KA relative to UGCAUGU. For B29 the value was 0.0116 KA relative to UGCAUGU; for B30, 0.0117 KA relative to UGCAUGU; for B31, 0.00414 KA relative to UGCAUGU.
